# From publication PMC12280212
# Certain results were filed several times, with different values. The other results are left out here. An entry can have further records. Some protein pairs were linked at several places, one record each.
# Biological target: PPIB (UniProt P23284)
# Assay: cross-linking mass spectrometry
# Details: DSSO, in cells
# PPIB, P23284, sequence (P23284 whole entry): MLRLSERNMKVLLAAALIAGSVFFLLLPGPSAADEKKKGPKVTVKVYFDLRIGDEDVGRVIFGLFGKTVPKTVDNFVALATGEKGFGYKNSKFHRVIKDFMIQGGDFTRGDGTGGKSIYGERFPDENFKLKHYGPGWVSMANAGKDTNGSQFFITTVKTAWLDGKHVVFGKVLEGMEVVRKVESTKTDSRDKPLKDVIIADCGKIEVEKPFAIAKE
# PRKCSH, sequence (P14314 whole entry): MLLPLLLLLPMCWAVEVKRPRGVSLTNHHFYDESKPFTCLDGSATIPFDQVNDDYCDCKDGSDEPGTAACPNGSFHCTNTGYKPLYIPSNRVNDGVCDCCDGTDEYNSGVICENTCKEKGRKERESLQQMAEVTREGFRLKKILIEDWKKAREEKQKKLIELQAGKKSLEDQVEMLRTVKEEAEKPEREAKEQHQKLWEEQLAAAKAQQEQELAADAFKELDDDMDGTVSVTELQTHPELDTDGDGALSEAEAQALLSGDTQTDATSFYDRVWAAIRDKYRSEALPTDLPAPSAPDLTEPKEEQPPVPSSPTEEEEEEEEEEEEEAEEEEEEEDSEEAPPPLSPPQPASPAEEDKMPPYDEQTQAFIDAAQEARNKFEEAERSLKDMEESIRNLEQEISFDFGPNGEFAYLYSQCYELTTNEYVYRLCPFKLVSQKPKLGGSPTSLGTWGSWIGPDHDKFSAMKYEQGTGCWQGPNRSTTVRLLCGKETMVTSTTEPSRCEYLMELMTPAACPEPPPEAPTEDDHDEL
# CALR, sequence (P27797 whole entry): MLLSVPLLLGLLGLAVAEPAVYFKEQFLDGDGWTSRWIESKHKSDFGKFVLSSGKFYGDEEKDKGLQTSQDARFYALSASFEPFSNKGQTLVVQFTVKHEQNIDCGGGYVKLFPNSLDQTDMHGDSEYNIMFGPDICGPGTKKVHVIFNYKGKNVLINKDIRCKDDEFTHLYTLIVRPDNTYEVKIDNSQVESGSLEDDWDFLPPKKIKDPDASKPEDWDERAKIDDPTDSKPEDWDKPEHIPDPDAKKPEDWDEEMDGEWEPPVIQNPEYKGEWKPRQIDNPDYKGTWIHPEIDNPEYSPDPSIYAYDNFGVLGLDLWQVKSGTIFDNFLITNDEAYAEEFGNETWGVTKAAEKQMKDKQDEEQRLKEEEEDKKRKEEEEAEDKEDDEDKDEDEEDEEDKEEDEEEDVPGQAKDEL
# CALU, sequence (O43852 whole entry): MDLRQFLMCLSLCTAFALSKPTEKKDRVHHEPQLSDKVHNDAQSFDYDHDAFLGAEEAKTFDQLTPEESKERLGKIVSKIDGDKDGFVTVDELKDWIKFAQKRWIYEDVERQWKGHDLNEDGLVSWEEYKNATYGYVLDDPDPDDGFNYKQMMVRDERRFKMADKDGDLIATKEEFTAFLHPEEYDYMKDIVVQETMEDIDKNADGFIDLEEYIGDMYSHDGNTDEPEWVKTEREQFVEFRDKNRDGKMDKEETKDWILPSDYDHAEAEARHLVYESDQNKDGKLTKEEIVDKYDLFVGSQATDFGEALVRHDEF
# P4HB, sequence (P07237 whole entry): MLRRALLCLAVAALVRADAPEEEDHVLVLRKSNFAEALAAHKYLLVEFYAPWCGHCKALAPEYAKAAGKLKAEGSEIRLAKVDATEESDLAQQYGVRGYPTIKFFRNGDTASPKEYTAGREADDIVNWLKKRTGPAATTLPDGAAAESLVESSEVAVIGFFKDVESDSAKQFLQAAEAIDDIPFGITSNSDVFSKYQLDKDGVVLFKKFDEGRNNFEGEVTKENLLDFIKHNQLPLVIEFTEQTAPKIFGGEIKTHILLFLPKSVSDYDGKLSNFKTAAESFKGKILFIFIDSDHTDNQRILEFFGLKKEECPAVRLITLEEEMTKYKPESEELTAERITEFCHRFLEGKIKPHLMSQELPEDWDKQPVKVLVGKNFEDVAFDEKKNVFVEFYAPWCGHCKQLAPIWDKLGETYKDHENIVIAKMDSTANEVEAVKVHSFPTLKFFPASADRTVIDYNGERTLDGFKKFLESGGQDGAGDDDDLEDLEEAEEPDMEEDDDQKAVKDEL
# PDIA4, sequence (P13667 whole entry): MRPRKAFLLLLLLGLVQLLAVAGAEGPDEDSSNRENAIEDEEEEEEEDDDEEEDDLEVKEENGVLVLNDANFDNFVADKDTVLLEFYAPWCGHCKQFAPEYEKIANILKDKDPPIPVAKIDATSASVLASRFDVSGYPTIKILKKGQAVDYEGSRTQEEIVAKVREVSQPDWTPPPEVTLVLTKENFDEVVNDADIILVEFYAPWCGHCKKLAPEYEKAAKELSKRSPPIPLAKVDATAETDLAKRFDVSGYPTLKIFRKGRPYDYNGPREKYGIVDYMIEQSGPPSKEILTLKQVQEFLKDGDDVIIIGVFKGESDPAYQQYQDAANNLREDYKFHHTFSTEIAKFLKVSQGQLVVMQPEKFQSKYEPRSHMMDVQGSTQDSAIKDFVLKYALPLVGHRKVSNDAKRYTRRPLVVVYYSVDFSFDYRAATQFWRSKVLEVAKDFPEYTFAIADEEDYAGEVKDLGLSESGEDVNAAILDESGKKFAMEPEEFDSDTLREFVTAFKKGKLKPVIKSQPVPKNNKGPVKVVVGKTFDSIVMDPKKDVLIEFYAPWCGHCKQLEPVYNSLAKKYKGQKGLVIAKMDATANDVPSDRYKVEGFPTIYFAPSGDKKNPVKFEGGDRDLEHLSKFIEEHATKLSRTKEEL
# HSPA5, sequence (P11021 whole entry): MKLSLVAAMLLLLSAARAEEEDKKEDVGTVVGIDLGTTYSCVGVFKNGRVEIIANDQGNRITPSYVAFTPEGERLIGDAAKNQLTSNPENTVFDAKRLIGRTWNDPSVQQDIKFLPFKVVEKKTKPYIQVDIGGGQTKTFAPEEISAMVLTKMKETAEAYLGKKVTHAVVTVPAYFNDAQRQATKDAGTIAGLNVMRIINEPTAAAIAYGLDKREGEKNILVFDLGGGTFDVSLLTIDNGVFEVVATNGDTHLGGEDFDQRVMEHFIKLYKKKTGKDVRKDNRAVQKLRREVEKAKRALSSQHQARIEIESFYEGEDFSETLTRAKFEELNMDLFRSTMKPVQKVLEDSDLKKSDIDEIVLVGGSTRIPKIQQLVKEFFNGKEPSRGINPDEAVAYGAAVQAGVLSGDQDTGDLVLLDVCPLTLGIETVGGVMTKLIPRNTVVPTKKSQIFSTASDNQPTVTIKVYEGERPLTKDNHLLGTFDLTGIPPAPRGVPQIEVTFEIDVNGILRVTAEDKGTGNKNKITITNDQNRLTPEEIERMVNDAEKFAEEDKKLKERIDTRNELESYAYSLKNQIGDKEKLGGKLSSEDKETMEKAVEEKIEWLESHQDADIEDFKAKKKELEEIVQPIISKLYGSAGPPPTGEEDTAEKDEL
# HSP90B1, sequence (P14625 whole entry): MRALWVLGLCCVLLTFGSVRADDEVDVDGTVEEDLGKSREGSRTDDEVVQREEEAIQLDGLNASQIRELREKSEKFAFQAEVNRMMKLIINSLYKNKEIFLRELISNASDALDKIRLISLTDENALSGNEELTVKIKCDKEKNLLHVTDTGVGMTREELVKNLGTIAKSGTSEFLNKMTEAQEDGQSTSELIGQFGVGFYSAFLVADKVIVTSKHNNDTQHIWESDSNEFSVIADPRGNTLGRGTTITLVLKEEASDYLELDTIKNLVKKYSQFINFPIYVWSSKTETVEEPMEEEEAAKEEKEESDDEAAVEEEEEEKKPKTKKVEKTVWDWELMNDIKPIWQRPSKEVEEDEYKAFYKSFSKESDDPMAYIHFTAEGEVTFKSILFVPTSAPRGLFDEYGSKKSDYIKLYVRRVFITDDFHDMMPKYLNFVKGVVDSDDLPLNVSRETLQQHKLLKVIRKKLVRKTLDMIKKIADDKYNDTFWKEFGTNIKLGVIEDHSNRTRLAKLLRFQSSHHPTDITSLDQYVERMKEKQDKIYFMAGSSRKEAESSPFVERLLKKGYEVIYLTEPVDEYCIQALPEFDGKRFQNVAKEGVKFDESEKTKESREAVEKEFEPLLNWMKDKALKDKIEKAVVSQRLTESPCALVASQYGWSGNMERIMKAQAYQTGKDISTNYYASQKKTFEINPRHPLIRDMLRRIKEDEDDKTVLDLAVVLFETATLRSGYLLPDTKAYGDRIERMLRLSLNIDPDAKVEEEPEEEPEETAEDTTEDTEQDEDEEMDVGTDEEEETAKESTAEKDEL
row,Substance,cross-linked residues
1,"HSPA5, P11021",K287 - K67 and K287 - K116 and K287 - K186 and K340 - K92 and K340 - K116 and K340 - K186 and K352 - K131 and K370 - K92 and K370 - K116 and K370 - K195 and K523 - K92 and K523 - K116 and K523 - K186 and K547 - K116 and K579 - K186
2,"PRKCSH, P14314",K158 - K116 and K191 - K116 and K436 - K116 and K436 - K186
3,"PDIA4, P13667",K111 - K165 and K145 - K116 and K211 - K84 and K211 - K186 and K245 - K92 and K245 - K116 and K245 - K165 and K294 - K116 and K366 - K116 and K407 - K186 and K437 - K67 and K570 - K116
4,"CALU, O43852",K79 - K116 and K281 - K116
5,"HSP90B1, P14625",K161 - K92 and K348 - K92 and K547 - K84 and K547 - K116 and K597 - K92 and K597 - K186 and K603 - K116 and K633 - K92 and K633 - K116 and K633 - K186 and K671 - K116 and K682 - K116
6,"P4HB, P07237",K31 - K186 and K71 - K116 and K71 - K186 and K114 - K116 and K114 - K186 and K271 - K116 and K308 - K116 and K326 - K116 and K350 - K92 and K350 - K116

# Biological target: RCN1 (UniProt Q15293)
# UniProt Q15293, sequence (Q15293 whole entry): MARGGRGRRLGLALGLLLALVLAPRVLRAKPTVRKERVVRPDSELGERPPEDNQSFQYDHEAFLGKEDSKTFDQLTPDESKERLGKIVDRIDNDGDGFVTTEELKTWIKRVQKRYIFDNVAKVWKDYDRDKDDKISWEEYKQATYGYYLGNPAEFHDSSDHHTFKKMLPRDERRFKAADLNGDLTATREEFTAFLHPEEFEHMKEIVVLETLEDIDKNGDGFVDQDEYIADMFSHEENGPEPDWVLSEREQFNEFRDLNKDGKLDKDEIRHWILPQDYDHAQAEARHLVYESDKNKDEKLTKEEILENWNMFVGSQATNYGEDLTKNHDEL
# Assay: cross-linking mass spectrometry
# Details: DSSO, in cells
row,Substance,cross-linked residues
1,"CALR, P27797",K153 - K299 and K209 - K86
2,"PPIB, P23284",K116 - K86 and K186 - K86
3,"P4HB, P07237",K31 - K86 and K71 - K86

# Biological target: SERPINH1 (UniProt P50454)
# UniProt P50454, sequence (P50454 whole entry): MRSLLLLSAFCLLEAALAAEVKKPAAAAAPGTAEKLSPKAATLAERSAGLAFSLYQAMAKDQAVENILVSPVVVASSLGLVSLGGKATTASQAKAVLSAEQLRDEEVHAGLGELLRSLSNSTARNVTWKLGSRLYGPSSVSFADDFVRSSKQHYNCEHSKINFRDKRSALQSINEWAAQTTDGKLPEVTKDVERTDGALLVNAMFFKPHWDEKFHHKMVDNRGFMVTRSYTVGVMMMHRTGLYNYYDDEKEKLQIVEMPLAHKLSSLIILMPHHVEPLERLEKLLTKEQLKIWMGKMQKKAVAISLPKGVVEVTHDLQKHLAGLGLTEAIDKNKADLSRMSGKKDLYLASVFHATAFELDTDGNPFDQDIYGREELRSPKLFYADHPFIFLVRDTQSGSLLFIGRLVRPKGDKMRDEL
# Assay: cross-linking mass spectrometry
# Details: DSSO, in cells
row,Substance,cross-linked residues
1,"HSPA5, P11021",K370 - K39 and K370 - K250 and K370 - K252 and K370 - K410 and K523 - K190 and K523 - K287 and K523 - K410 and K573 - K334 and K579 - K39 and K579 - K190 and K579 - K332 and K579 - K334
2,"PDIA3, P30101",K332 - K190 and K362 - K334
3,"CALR, P27797",K41 - K39 and K43 - K190 and K43 - K287 and K62 - K39 and K62 - K190 and K62 - K410 and K143 - K39 and K153 - K39 and K153 - K190 and K153 - K252 and K153 - K332 and K209 - K39 and K209 - K190 and K360 - K39 and K360 - K190 and K360 - K252 and K360 - K287 and K360 - K308 and K360 - K332 and K360 - K334 and K360 - K410 and K360 - K413 and K368 - K39 and K374 - K334 and K374 - K413
4,"PPIB, P23284",K84 - K39 and K92 - K39 and K116 - K39 and K116 - K190 and K116 - K250 and K116 - K252 and K116 - K334
5,"CALU, O43852",K75 - K332 and K79 - K319
6,"HSP90B1, P14625",K547 - K190 and K603 - K410 and K671 - K39
7,"P4HB, P07237",K31 - K39 and K31 - K190 and K31 - K334 and K71 - K190 and K71 - K287 and K71 - K332 and K103 - K190 and K114 - K334 and K308 - K190 and K309 - K190 and K309 - K410 and K326 - K334 and K409 - K334 and K436 - K190 and K436 - K334 and K444 - K190 and K444 - K334
